Experimental data published in the RNAGym collection of RNA variant scans (doi:10.1073/pnas.2313332121).
Variants at the floor of the assay are shown more often than the library holds them.

B1: TPR 5TU (parent)
chain: GGAUCUUCUCGAUCUAACAAAAAAGACAAAUCUGCCACAAAGCUUGAGAGCAUCUUCGGAUGCAGAGGCGGCAGCCUUCGGUGGCGCGAUAGCGCCAACGUUCUCAACUAUGACACGCAAAACGCGUGCUCCGUUGAAUGGAGUUUAUCAUG

Variants of: B1
Assay: polymerase ribozyme fitness, log enrichment relative to wild type (log ratio); higher = more active; in vitro selection for triplet polymerase activity
In short: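 Input and output libraries were sequenced on Illumina after a single in vitro selection round, run in triplicate on PCR-built, transcribed mutant libraries of each subunit of a heterodimeric triplet polymerase ribozyme. Selection annealed libraries to a biotinylated primer, the partner subunit and triplets, incubated them frozen at −7 °C, then gel-excised extended constructs for streptavidin-bead capture and RT-PCR. Genotypes with ≥10 input reads and ≥1 read per output were kept. Fitness is the logarithm, taken in base 2, of genotype enrichment divided by wild-type enrichment, using inverse-variance-weighted replicate averages.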

Polymerase ribozyme fitness (log ratio), ≤ -4.2:
GGGUCUUCUCGAUCUAACAUAAAAGAGAAAUCUGCCACAAAACUUGAGAGCAUCUACGGAUGCAGAGGCGGCAGCCGUCGGUGGCACGAUAGCGCCAACGUUCUCAACUAUGACACUCAAAACGCGUGCUCCCUUGAAUGGAGUUUAUCAUG [A3G A20U C27G G42A U56A U77G G86A G117U G133C]
GGGUCUUCUCGAUCUAACAUAAAAGACAAAUCUGCAACAAAGCUUGAGAGCAUCUUCGGAUGCAGAGGCGGCAGCCUUCGGUGGCGGGAUAGCGCCAACGUUCUCAACUAUGACACGCAAAACGCGUGAUCCGUUGAACGGAGUUGAUCAUG [A3G A20U C36A C87G C129A U139C U146G]
GGGUCUUCUCGAUCUAACAUAAAAGACAAAUCUGCCACAAAGCUUGAGAGCAUCUUCGGAUGCAGAGGCGGCAGGCUUCGGUGGUGCGAUAUCGCCAACGUUCUCAACUAUGACACGCAAAACGCGUGCUCCGUUGAAUGGAGUUUAUCAUG [A3G A20U C75G C85U G92U]
GGGUCUUCUCGAUCUAACAACAAAGACAAAUCUGCCACAAAGCUUGAGAGCAUCUUCGGAUGCAGAGGCGGCAGCCUGCGGUGGCGCGAGAGCGCCAACGUUCUCAACUAUGACACGCAAAACGCGUGCUUCGUUGAAUGCAGUUUAUCAUG [A3G A21C U78G U90G C131U G141C]
GGGUCUUCUCGAUCUAACAAACGAGACAAAUCUGCAACAAAGCUUGAGAGCAUCUUCGGAUGCAGAGGCGGCAGUCUUCGGUGGCGCGAUAGCGACGACGUUCUCAACUAUGACACGCAUAACGCGUGCUCCGUUGAAUGGAGUUUAUCAUG [A3G A22C A23G C36A C75U C95A A97G A120U]
GGGUCUUCUCGAUCUAACAAACAAGACAAAUCUGCCACAAAGCUCGAGAGCAUCUUCGGAUGCAGCCGCGGCAGCCUUCGGUGGCGCGAUAGUGCCAACGUUCUCAACUAUGUCACGCAAAACGCGUGCUCCGUUGAAUGGAGUUUAUCAUG [A3G A22C U45C A66C G67C C93U A113U]
GGGUCUUCUCGAUCUAACAAAUAAGACAAAUCUGCCACAGAGCUUGAGAGCAUCUUCGGGUGCGGAGGCGGCAGCCUUCGGUGGCGCGAUAGCGCCAACGUUCUCAACUAUGACACGCAAAACGCGUGAUCCGUUGAAUGGCGUUAAUCAUG [A3G A22U A40G A60G A64G C129A A142C U146A]
GGGUCUUCUCGAUCUAACAAAUAAGACAAAUCUGCCACAUAGCCUGAGAGCAUCUUCGGAUGCAGAGGCGGCAGCCUUCGGUGGCGCGAUAGCGCGAACGUUCUCAACUAUGACAUGCAAAACGCGUGCUCCGCUGAAUGGAGUUUAUCAUG [A3G A22U A40U U44C C96G C116U U134C]
GGGUCUUCUCGAUCUAACAAAAAUGACAAAUCUGCCACAAAGCUUGAGAGCAUCUUCGGAUGCAGAGGGGGCAGCCUUCGGUGGCGCGAUAGGGCCAACGUUCUCAACUAUGACACGCGAAACGCGUGCUCGGUUGAAAGGAGUUUAUCAUG [A3G A24U C69G C93G A119G C132G U139A]
GGGUCUUCUCGAUCUAACAAAAAAGACGAAUCUUCCACAAAGCUUGAGAGCAUCUUCGGAUGCAGAGGCGGCAGUCUUCGGAGGCGCUAUAGCGCUAACGUUCUCAACUAUGACACGCAAAACGCGUGCUCCGUUGAAUGGAGUUUAUCAUG [A3G A28G G34U C75U U82A G88U C96U]
GGGUCUUCUCGAUCUAACAAAAAAGACUAAUCUGCCACAAAGCUUGAGAUCAUCUUCGGAUGCAGAGGCGGCAGCCUUCGGUGGCGCGUUAGCGCCAACGUUCUCAACUAUGACACGCAAAACGCGUGCUCCGUUGAAUGGAGUUUAUCAUG [A3G A28U G50U A89U]
GGGUCUUCUCGAUCUAACAAAAAAGACAUAUCUGCCACAAAGCUUGAGAGGAUCGUCGGAUGCAGAGGCGGCAGCCUUCGGUGGCGGGAUAGCGCCAACGUUCUCAAGUAUGACACGCAAAACGCGUGCUCCGUUGAAUGGAGUUUAUCAUG [A3G A29U C51G U55G C87G C108G]
GGGUCUUCUCGAUCUAACAAAAAAGACAUAUCUGCCACAAAGCUUCAGAGCAUCUUCGGAUGCAGAGGCGGCAGCCUUCGGUGGCGCGAUAGUGCAAACGUUCUCAACUAUGACUCGCAAAACGCGUGCUCCGUUGAAUGGAGUUUAUCAUG [A3G A29U G46C C93U C96A A115U]
GGGUCUUCUCGAUCUAACAAAAAAGACAAGUCUGCCAAAAAGCUUGAGAGCAUCUUCGGAUGCAGAGGCGGCAGCCUUCGGUAGCGCGAUAGCGCCAACGGUCUCAACUAUGACACGCAAAACGCGUGCUCCGUUGAAUGGAGUUUAUCAUG [A3G A30G C38A G83A U101G]
GGGUCUUCUCGAUCUAACAAAAAAGACAAGUCUGCCAUAAAGCUUGAGAGCAUCUUCGGAUGCAGAGGCGGCAGCCUUAGGUGGCGGGAUAGCGCCAUCGUUGUCAACUAUGACACGCAAAACGCGUGCUCCGUUGAAUGGAGUUUAUCAUG [A3G A30G C38U C79A C87G A98U C103G]
GGGUCUUCUCGAUCUAACAAAAAAGACAAUUCUGCCACAAGGCUUGAGAGCAUCUUCGGAUGCAGAGGCGGCAGCCUUCGGUGGCGCGAUUGCGCCAACGUUCUCAACUCUGACACGCAAAACACGUGCUCCGUUGAAGGGAGUUCAUCAUG [A3G A30U A41G A91U A110C G124A U139G U146C]
GGGUCUUCUCGAUCUAACAAAAAAGACAAUUCUGCCACAAAGCUUGAGAGCAUCUUCGGAAGCAGAGGCCGCAGCCUUCGGUGGCGCGAUAGAGCCAACGUUCUCAACUAUGACACGCAAAACGCGUGCUCCGUUGAAUGGAGUUUAUCAUG [A3G A30U U61A G70C C93A]
GGGUCUUCUCGAUCUAACAAAAAAGACAAAUCUGCCACACAGCUUGAGCGCAUCUUGGGAUGCAGAGGCGGCACCCUUCGGUGGCGGGGUAGCGCCAACGUUCGCAACUAUGACACGCAAAACGCGUGCUCCGUUGAAUGGAGUUUAUCAUG [A3G A40C A49C C57G G74C C87G A89G U104G]
GGGUCUUCUCGAUCUAACAAAAAAGACAAAUCUGCCACAUAGCUUGAGAGCAUCUUCGGAUGCAGAGGCGGCAGCCUUCGGUGGCGCGAUAGCGCGAACGUUCUCAACUAUGACACGCAAAACGCGUGCUCCGUUGUAUGGAGUUUAUCAGG [A3G A40U C96G A137U U151G]
